Measurements published in PubChem BioAssay (NCI).
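1) Cells in 96-well plates. 2) Compound, 48 h, 5 concentrations. 3) Linear interpolation between surrounding doses. 4) Unreached endpoint = highest concentration. GI50 marks 50% less growth. The concentration for full growth arrest is given as TGI.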

Each compound was assayed on NCI-H322M lung (assay: DTP human tumour cell line panel, 48 h).

SMILES | GI50 | TGI
CCCn1c2c(c3c(O)cccc31)C(=O)c1ccccc1-2 | 19.2 µM | > 100 µM
CC(C)/C=C1\CCC(CN2CCOCC2)C1=O (stereo unspecified) | – | > 53.4 µM
COc1cc(-c2nc3ccccc3s2)ccc1OCCCCOc1cc2c(cc1OC)C(=O)N1CCC[C@H]1C=N2 | 3.01 µM | 10.6 µM
O=c1cc(-c2ccccn2)[nH]c2cccc(F)c12 | – | > 100 µM
O=C(CCN1CCOCC1)/C(=C/c1ccccc1)c1ccccc1 | – | 28.8 µM
CN(C)c1ccc(Nc2c3ccccc3nc3ccccc23)cc1 | 1.62 µM | 5.11 µM
Cc1ccc(S(=O)(=O)Oc2ccc3c4c(c(=O)oc3c2)CCCCCC4)cc1 | > 100 µM | > 100 µM
Cc1ccc2nc3ccccc3c(NCc3ccc(Cl)cc3)c2c1 | 5.46 µM | 11.5 µM
COC(C/C(=C/CO[Si](C(C)C)(C(C)C)C(C)C)C(=O)N(COCC[Si](C)(C)C)c1ccccc1I)OC | – | > 100 µM
COc1ccc(C(=O)Cn2c(C(=O)c3ccccc3)nc3ccccc32)cc1 | 37.4 µM | > 100 µM
O=c1[nH]c(=O)n(C2CC(O)C(CO)O2)cc1Oc1ccccc1 (stereo unspecified) | – | > 100 µM
C=CC(=O)N1C/C(=C\c2ccc(Cl)c(Cl)c2)C(=O)/C(=C/c2ccc(Cl)c(Cl)c2)C1 | – | 0.829 µM
COc1ccc(C2C3=C(N=C4SC(C(C)=O)=C(C)N42)c2ccccc2CC3)cc1 (stereo unspecified) | – | > 100 µM
CSC(=S)Nc1cc(C)cc(C)n1 | – | > 31.6 µM
COC(=O)[C@H](Cc1c[nH]c2ccccc12)NP(=O)(OCCC#N)OCC1OC(n2cc(C)c(=O)[nH]c2=O)CC1N=[N+]=[N-] (stereo partly specified) | – | > 100 µM
